Results from patent US12679903B2, “Antibody for specifically binding to lysyl-tRNA synthetase N-terminal domain exposed to extracellular membrane” (Zymedi Co., Ltd., priority 2018, dated 2026).

Key:
[1] = tested on: T52D KRS-MDA-MB-231 stable cells; assay: Laminin-dependent cancer cell migration assay; format: cell-based; settings: 10 nM, 7 hours; FIG. 19
Procedure: Measurements were made in a 24-well trans well chamber with a polycarbonate membrane (8.0 μm pore size, Costar). Laminin was added to the lower chamber at a concentration of 1 mg/ml, and a migration assay was performed using stable MDA-MB-231 cells overexpressing T52D KRS, which mimics a phosphorylated KRS. To induce T52D KRS expression, T52D KRS-MDA-MB-231 stable cells were treated with doxycycline (0.1 μg/ml) for one day, and then seeded in the upper chamber at a concentration of 4×10^4 cells after suspended in serum-free RPMI medium. […] The non-migrating cells existing above the membrane were removed with a cotton swab. The membrane was washed twice with PBS and treated with 70% MeOH (in PBS) for 30 minutes. Again washed twice with PBS, the membrane was stained using crystal violet (Slgma), and dried. Then, the upper chamber was put in 33% acetic acid (Merck) and stirred. Crystal violet-dissolved acetic acid solution was transferred to a 96-well plate, and absorbance was measured at 590 nm in a microplate reader (Tecan).

[2] = tested on: RAW264.7 cells; assay: LN421-dependent immune cell migration assay; format: cell-based; settings: 10 nM, 24 hours, LN421 2.5 μg/ml; FIG. 18
Procedure: In order to confirm the effect of the mutant antibody from which the ADCC/CDC function had been removed on immune cell migration, a cell migration assay was performed according to the method described in the prior literature (Park, S. G. et al. Human lysyl-tRNA synthetase is secreted to trigger pro-inflammatory response, Proc. Natl. Acad. Sci. USA 102, 6356-6361 (2005)).
Measurements were made in a trans well chamber with a polycarbonate membrane (5.0 μm pore size, Costar). LN421 was put into the lower chamber at a concentration of 2.5 μg/ml in the trans well chamber. Then, RAW264.7 cells were placed in the upper chamber at a concentration of 5×10^4 cells per well. Then, each antibody was put into the chamber at a concentration of 10 nM, and then incubated for 24 hours. Then, it was washed twice with PBS and treated with 70% MeOH (in PBS). After washing twice with PBS again, the transferred cells were stained with crystal violet (Sigma) and dried. Then, the upper chamber was put in 33% acetic acid (Merck) and stirred for 10 minutes. Crystal violet-dissolved acetic acid solution was transferred to a 96-well plate, and absorbance was measured at 590 nm in a microplate reader (Tecan).

[3] = Thermal stability (protein thermal shift dye kit); format: physicochemical; settings: 1 mg/ml purified antibody
Procedure: In addition, the thermal stability of the antibody was measured using 100 μl of the purified antibodies at a concentration of 1 mg/ml. Thermostability was investigated 4 times using protein thermal shift dye kit (Thermofisher) and Quant Studio 3 Real-time PCR equipment (Thermofisher).

Molecule	laminin-dependent migration of cancer cells [1]	LN421-dependent cell migration [2]	Thermal stability Tm1 [3]	Thermal stability Tm2 [3]
N3-8-1 mutant LALA: N3-8-1 with ADCC/CDC function removed; HC SEQ ID NO: 226, LC 111 (antibody, IgG heavy chain 6_IgG1 mutant LALA_amino acid; IgG light chain 3) heavy: EVQLLESGGGLVQPGGSLRLSCAASGFTFSSYDMSWVRQAPGKGLEWVSAISPYSGRIYYADSVKGRFTISRDNSKNTLYLQMNSLRAEDTAVYYCARMALDFDYWGQGTLVTVSS[letters of human IgG1 constant region with changes omitted] light: QSVLTQPPSASGTPGQRVTISCTGSSSNIGSNYVTWYQQLPGTAPKLLIYDNSNRPSGVPDRFSGSKSGTSASLAISGLQSEDEADYYCSSFSDELGAYVFGGGTKLTVLGQPKAAPSVTLFPPSSEELQANKATLVCLISDFYPGAVTVAWKADSSPVKAGVETTTPSKQSNNKYAASSYLSLTPEQWKSHRSYSCQVTHEGSTVEKTVAPTECS	inhibited the laminin-dependent migration of cancer cells	inhibited LN421-dependent cell migration		
N3-8-2: N3-8 derivative; VH SEQ ID NO: 45, VL 53; HC 103, LC 113 (antibody, IgG heavy chain 6; IgG light chain 4, N3-8 derivative; HC 103, LC 113) heavy: EVQLLESGGGLVQPGGSLRLSCAASGFTFSSYDMSWVRQAPGKGLEWVSAISPYSGRIYYADSVKGRFTISRDNSKNTLYLQMNSLRAEDTAVYYCARMALDFDYWGQGTLVTVSS[letters of human IgG1 constant region omitted] light: QSVLTQPPSASGTPGQRVTISCTGSSSNIGSNYVTWYQQLPGTAPKLLIYSNNQRPSGVPDRFSGSKSGTSASLAISGLQSEDEADYYCSSFSDELGAYVFGGGTKLTVLGQPKAAPSVTLFPPSSEELQANKATLVCLISDFYPGAVTVAWKADSSPVKAGVETTTPSKQSNNKYAASSYLSLTPEQWKSHRSYSCQVTHEGSTVEKTVAPTECS			72.41	
N3-8-1 mutant LALATA: N3-8-1 with ADCC/CDC function removed; HC SEQ ID NO: 228, LC 111 (antibody, LALA-TA Fc mutations; IgG heavy chain 6_IgG1 mutant LALATA_amino acid; IgG light chain 3) heavy: EVQLLESGGGLVQPGGSLRLSCAASGFTFSSYDMSWVRQAPGKGLEWVSAISPYSGRIYYADSVKGRFTISRDNSKNTLYLQMNSLRAEDTAVYYCARMALDFDYWGQGTLVTVSSASTKGPSVFPLAPSSKSTSGGTAALGCLVKDYFPEPVTVSWNSGALTSGVHTFPAVLQSSGLYSLSSVVTVPSSSLGTQTYICNVNHKPSNTKVDKKV[letters of human IgG1 Fc with L234A L235A T299A (EU numbers) omitted] light: QSVLTQPPSASGTPGQRVTISCTGSSSNIGSNYVTWYQQLPGTAPKLLIYDNSNRPSGVPDRFSGSKSGTSASLAISGLQSEDEADYYCSSFSDELGAYVFGGGTKLTVLGQPKAAPSVTLFPPSSEELQANKATLVCLISDFYPGAVTVAWKADSSPVKAGVETTTPSKQSNNKYAASSYLSLTPEQWKSHRSYSCQVTHEGSTVEKTVAPTECS	inhibited the laminin-dependent migration of cancer cells	inhibited LN421-dependent cell migration		
N3-8-4: N3-8 derivative; VH SEQ ID NO: 47, VL 51; HC 105, LC 111 (antibody, IgG heavy chain 7; IgG light chain 3, N3-8 derivative; HC 105, LC 111) heavy: EVQLLESGGGLVQPGGSLRLSCAASGFTFSSYDMSWVRQAPGKGLEWVSAISPYSGRIYYADSVKGRFTISRDNSKNTLYLQMNSLRAEDTAVYYCARLALDFDYWGQGTLVTVSS[letters of human IgG1 constant region omitted] light: QSVLTQPPSASGTPGQRVTISCTGSSSNIGSNYVTWYQQLPGTAPKLLIYDNSNRPSGVPDRFSGSKSGTSASLAISGLQSEDEADYYCSSFSDELGAYVFGGGTKLTVLGQPKAAPSVTLFPPSSEELQANKATLVCLISDFYPGAVTVAWKADSSPVKAGVETTTPSKQSNNKYAASSYLSLTPEQWKSHRSYSCQVTHEGSTVEKTVAPTECS			70.31	
N3-8-3: N3-8 derivative; VH SEQ ID NO: 45, VL 55; HC 103, LC 115 (antibody, IgG heavy chain 6; IgG light chain 5, N3-8 derivative; HC 103, LC 115) heavy: EVQLLESGGGLVQPGGSLRLSCAASGFTFSSYDMSWVRQAPGKGLEWVSAISPYSGRIYYADSVKGRFTISRDNSKNTLYLQMNSLRAEDTAVYYCARMALDFDYWGQGTLVTVSS[letters of human IgG1 constant region omitted] light: QSVLTQPPSASGTPGQRVTISCTGSSSNIGSNYVTWYQQLPGTAPKLLIYRNNQRPSGVPDRFSGSKSGTSASLAISGLQSEDEADYYCSSFSDELGAYVFGGGTKLTVLGQPKAAPSVTLFPPSSEELQANKATLVCLISDFYPGAVTVAWKADSSPVKAGVETTTPSKQSNNKYAASSYLSLTPEQWKSHRSYSCQVTHEGSTVEKTVAPTECS			71.02	76.31
N3-8-6: N3-8 derivative; VH SEQ ID NO: 47, VL 55; HC 105, LC 115 (antibody, IgG heavy chain 7; IgG light chain 5, N3-8 derivative; HC 105, LC 115) heavy: EVQLLESGGGLVQPGGSLRLSCAASGFTFSSYDMSWVRQAPGKGLEWVSAISPYSGRIYYADSVKGRFTISRDNSKNTLYLQMNSLRAEDTAVYYCARLALDFDYWGQGTLVTVSS[letters of human IgG1 constant region omitted] light: QSVLTQPPSASGTPGQRVTISCTGSSSNIGSNYVTWYQQLPGTAPKLLIYRNNQRPSGVPDRFSGSKSGTSASLAISGLQSEDEADYYCSSFSDELGAYVFGGGTKLTVLGQPKAAPSVTLFPPSSEELQANKATLVCLISDFYPGAVTVAWKADSSPVKAGVETTTPSKQSNNKYAASSYLSLTPEQWKSHRSYSCQVTHEGSTVEKTVAPTECS			71.0	76.97
N3-8-5: N3-8 derivative; VH SEQ ID NO: 47, VL 53; HC 105, LC 113 (antibody, IgG heavy chain 7; IgG light chain 4, N3-8 derivative; HC 105, LC 113) heavy: EVQLLESGGGLVQPGGSLRLSCAASGFTFSSYDMSWVRQAPGKGLEWVSAISPYSGRIYYADSVKGRFTISRDNSKNTLYLQMNSLRAEDTAVYYCARLALDFDYWGQGTLVTVSS[letters of human IgG1 constant region omitted] light: QSVLTQPPSASGTPGQRVTISCTGSSSNIGSNYVTWYQQLPGTAPKLLIYSNNQRPSGVPDRFSGSKSGTSASLAISGLQSEDEADYYCSSFSDELGAYVFGGGTKLTVLGQPKAAPSVTLFPPSSEELQANKATLVCLISDFYPGAVTVAWKADSSPVKAGVETTTPSKQSNNKYAASSYLSLTPEQWKSHRSYSCQVTHEGSTVEKTVAPTECS			72.9	
N3-8-1 mutant LALAPG: N3-8-1 with ADCC/CDC function removed; HC SEQ ID NO: 230, LC 111 (antibody, IgG heavy chain 6_IgG1 mutant LALAPG_amino acid; IgG light chain 3) heavy: EVQLLESGGGLVQPGGSLRLSCAASGFTFSSYDMSWVRQAPGKGLEWVSAISPYSGRIYYADSVKGRFTISRDNSKNTLYLQMNSLRAEDTAVYYCARMALDFDYWGQGTLVTVSSASTKGPSVFPLAPSSKSTSGGTAALGCLVKDYFPEPVTVSWNSGALTSGVHTFPAVLQSSGLYSLSSVVTVPSSSLGTQTYICNVNHKPSNTKVDKKV[letters of human IgG1 Fc with changes omitted] light: QSVLTQPPSASGTPGQRVTISCTGSSSNIGSNYVTWYQQLPGTAPKLLIYDNSNRPSGVPDRFSGSKSGTSASLAISGLQSEDEADYYCSSFSDELGAYVFGGGTKLTVLGQPKAAPSVTLFPPSSEELQANKATLVCLISDFYPGAVTVAWKADSSPVKAGVETTTPSKQSNNKYAASSYLSLTPEQWKSHRSYSCQVTHEGSTVEKTVAPTECS	inhibited the laminin-dependent migration of cancer cells	inhibited LN421-dependent cell migration		
